Laboratory results as given in the supplement of paper PMC10126150.
Values marked as one replicate rest on one cluster of the flow cell; about a third of the high ones do not repeat.

test system: ATP; experiment: switch fluorescence ratio, 500 uM ATP over buffer (Cy3 cluster intensity, sum of 5 cycles each) (fold (ratio)); higher = stronger signal-on switching upon ATP binding; sequences stand for … in TCGTCGGCAGCGTCAGATGTGTATAAGAGACAGTTTTTTTTTTTTTTTTTTTTTTTTT…TC; conditions: aptamer strand: ATP DNA aptamer (quencher-CACCTGGGGGAGTATTGCGGAGGAAGG + anchor), 100 nM annealed; ATP concentration: 500 uM; one replicate
In short: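 For every switch-domain sequence, the fluorescence ratio is the mean of per-cluster values, each being summed target-cycle Cy3 intensity over summed buffer-cycle Cy3 intensity. Clusters outside 100-1000 RFU were excluded. On a modified Illumina MiSeq flow-cell, the Cy3-labelled switching-strand clusters were annealed to 100 nM quencher-labelled ATP aptamer, imaged in selection buffer and then after 15 min with 500 uM ATP at 22 °C. Five such cycles were run, with NaOH stripping and re-annealing between them.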
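Further: ATP exposure 15 min at 22 °C before imaging.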

Sequence	switch fluorescence ratio
ATCCCGAGGC	1.28
ATCCCGGCTC	1.02
ATCCCTGACC	1.11
ATCCCTGGGG	1.05
ATCCGATTTA	0.981
ATCCGGGCG	1.03
ATCCGTAGAG	1.16
ATCCGTCACG	1.06
ATCCGTGGCA	1.04
ATCCTAAACC	1.04
ATCCTAGGAG	0.992
ATCCTCAATC	2.03
ATCCTCAGCG	1.51
ATCCTGATGG	0.994
ATCCTGGGCT	0.986
ATCCTTATCA	1.01
ATCCTTATCC	1.09
ATCCTTCTGG	1.02
ATCGAAGTG	1.02
ATCGACCAGC	1.05
ATCGAGTTGT	1.02
ATCGATAGAT	0.974
ATCGATGGCA	1.04
ATCGATTTAT	0.979
ATCGCAAATT	1.14
ATCGCAGGGT	1.01

Sequence	switch fluorescence ratio
ATCGCATAGG	1.11
ATCGCCTAGA	1
ATCGCTGAGG	1.01
ATCGCTTATA	1.07
ATCGCTTTCA	0.987
ATCGGAACAT	1
ATCGGCATAA	1.18
ATCGGCCTCA	0.947
ATCGGCGGAG	0.964
ATCGGGACTA	0.985
ATCGGGCAGA	0.999
ATCGGGCGCG	0.989
ATCGGGTCGC	1
ATCGGTCCAT	1
ATCGGTTCGA	1.02
ATCGTGCCGG	1.08
ATCGTGCGCT	0.994
ATCGTGGCAT	0.931
ATCGTTACTT	0.973
ATCGTTGTCA	0.994
ATCTAAGTTT	0.994
ATCTAATAGT	1.02
ATCTACATGC	1.04
ATCTAGAGT	0.94
ATCTAGGGAT	1
ATCTAGGGTA	0.963

Sequence	switch fluorescence ratio
ATCTAGTCTA	1.01
ATCTATAAGG	0.993
ATCTATTGCA	1.03
ATCTCATCTG	0.997
ATCTCATTCC	1.18
ATCTCCTGGT	1.02
ATCTCGGTC	0.983
ATCTCTATAG	1.01
ATCTCTATTA	0.937
ATCTCTCTTT	0.982
ATCTGAAAGA	0.969
ATCTGACAAG	1.04
ATCTGACTGC	1.03
ATCTGCAAGA	1.06
ATCTGCGCAG	1.05
ATCTGCGTTG	1.02
ATCTGGAGAT	0.981
ATCTGGGACG	1.12
ATCTGGTTTA	1.04
ATCTGTTCAT	0.982
ATCTGTTGGC	1.01
ATCTTCACCG	1.14
ATCTTCTCCG	1.98
ATCTTTAGAC	0.988
ATGAAATCAC	1.29
ATGAACACGT	0.99

Sequence	switch fluorescence ratio
ATGAAGATGA	1.01
ATGAATTGC	0.95
ATGACCATAT	1.01
ATGACCCCCG	1.05
ATGACTTAAA	0.986
ATGAGAGCAG	0.981
ATGAGATCGG	0.996
ATGAGATGAC	1.06
ATGAGCGAG	0.987
ATGAGGCAGC	1.26
ATGAGTAGTC	1.02
ATGATACGTG	0.957
ATGATCCACA	1.05
ATGATGGGAG	0.959
ATGCAACTC	1.13
ATGCAAGAGG	1.01
ATGCACCTGA	1.14
ATGCACTGTG	1
ATGCAGGGTC	0.99
ATGCCATTTT	1.01
ATGCCCCTTG	0.978
ATGCCGACAG	0.997
ATGCCGGACG	0.988
ATGCCTTTTG	0.979
ATGCGAGATA	0.98
ATGCGATATA	1.08

Sequence	switch fluorescence ratio
ATGCGCACTA	1.13
ATGCGGAGTC	1.03
ATGCGGATGC	0.988
ATGCGTGTTC	0.991
ATGCGTTAAC	1.06
ATGCTAGCTG	1
ATGCTAGTGA	1.01
ATGCTATAT	1.01
ATGCTCGCGA	1.05
ATGCTGGCTG	1.02
ATGCTGGGAG	0.988
ATGCTGGGT	0.998
ATGCTGTATC	1.01
ATGCTTGCTT	1.05
ATGCTTGGG	0.976
ATGGAATGTT	1.01
ATGGAATTAA	1.03
ATGGACCGTA	0.974
ATGGACTGTT	1.05
ATGGAGTATT	0.973
ATGGAGTGCG	0.954
ATGGATGGGA	0.961
ATGGCAAGGG	1.03
ATGGCACCAA	1.07
ATGGCAG	0.914
ATGGCAGTTT	1

Sequence	switch fluorescence ratio
ATGGCCGGGG	0.981
ATGGCGGGGG	0.989
ATGGCTCAGG	1.05
ATGGCTGG	1.02
ATGGGAAAAT	1.01
ATGGGAGC	1.05
ATGGGAGTCT	1
ATGGGATAGG	0.944
ATGGGATG	1
ATGGGCACAC	1.01
ATGGGCATAC	1.84
ATGGGCCTGA	1.03
ATGGGGACGA	1
ATGGGGCCAT	1.02
ATGGGTACTT	1.01
ATGGGTCATC	0.997
ATGGGTGACT	0.966
ATGGGTGAGA	1.06
ATGGGTGTAG	1.01
ATGGGTTGCA	0.992
ATGGTACGAG	1.02
ATGGTAGATT	1.01
ATGGTATGGG	0.991
ATGGTCTCGT	0.967
ATGGTCTTGA	1.03
ATGGTGAACA	0.984

Sequence	switch fluorescence ratio
ATGGTGATAA	0.979
ATGGTGATCT	1.01
ATGGTGCCAA	1.04
ATGGTGGTTA	1.01
ATGGTGTAA	1.02
ATGGTGTCGG	1.03
ATGGTTAATC	1.01
ATGGTTGAAG	0.97
ATGGTTTATT	1.01
ATGTAAAC	1.01
ATGTACCAGG	1.41
ATGTACTTTG	1.09
ATGTAGAAAG	0.976
ATGTAGCGGC	1.12
ATGTAGTTAA	0.999
ATGTATATCC	1.03
ATGTATGTAT	1.01
ATGTATTGTA	0.992
ATGTCAATTC	1.06
ATGTCACATC	0.995
ATGTCACCGG	0.978
ATGTCCGCAC	3.31
ATGTCCGCGT	1.15
ATGTCCGTTG	1.01
ATGTCGGCTA	0.967
ATGTCGGTGG	1.03

Sequence	switch fluorescence ratio
ATGTCTCACC	0.986
ATGTGAATTA	0.978
ATGTGATCAT	0.956
ATGTGATGTC	0.984
ATGTGGCGCT	1.06
ATGTGGGAGA	1.01
ATGTGTAAGA	1.01
ATGTGTATCT	0.998
ATGTGTTATA	1.07
ATGTTAACAT	0.99
ATGTTACGAT	0.982
ATGTTCTCGG	0.986
ATGTTGAGGG	1.03
ATGTTGCACT	1.01
ATGTTGGTT	0.973
ATGTTGTACA	1.02
ATGTTTAATT	0.971
ATGTTTCTTC	0.971
ATGTTTGCGG	1.02
